Consider 47 compounds from PubChem BioAssay AID1508624 (National Center for Advancing Translational Sciences (NCATS), 2021).

Structures are written as SMILES. In all, about 48,000 compounds went through this assay and about 120 (0.25%) were called active. Not shown: some 4% with an inconclusive outcome. Calls follow the shape of the dose curve; as a rule, active = well fitted activation curve with a large enough effect; inconclusive = small, poorly fitted or top-dose-only effect, or another doubt; inactive = no such curve, though single readings can be large or run the other way. The list shows a part of the results.
Potency is read from the fitted curve at half-maximal effect.

This experiment in a line: Primary qHTS for Identification of Small Molecule Activators of Huntingtin-Antisense Promoter Activity. Also: nearly all actives have a fitted effect of over 55% in size. The settings on record: HEK293 HTT-AS promoter firefly luciferase reporter, 24 h; series mostly up to 57.5 µM; activity change, positive = activation: at the top concentration. The gist of the method: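 Firefly luciferase readout (Dual-Glo, 10 min RT) after 24 h, 37 °C compound exposure (final up to 57.5 uM) of HEK293 reporter cells cultured 24 h beforehand; PTC124 at 50 uM final as control inhibitor; activity scaled vehicle 0%, zero RLU -100%.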
With `Cc1ccc(S(=O)(=O)c2nc(-c3cccs3)oc2SC(C)C)cc1`, the “activity change, positive = activation” value was inactive: -7.62%.
Regarding `N#Cc1ccccc1NC(=O)C(=O)NCCc1csc(-c2ccc(F)cc2)n1`, the “activity change, positive = activation” value is inactive: -9.81%.
Same read-out and setting: next, `O=C(Cn1c(=O)oc2cc(S(=O)(=O)N3CCCC3)ccc21)Nc1ccc(F)cc1F`: inactive: -21.1%; `CCNC(=O)CC1C(=O)N(c2ccc(C)cc2)C(=O)N1CCC(C)C` (configuration not stated): inactive: -20.5%.
Still for that read-out and setting: the value for `COc1ccc2c(Sc3ccc(Cl)cc3)c(C(=O)N3CCC(C)CC3)[nH]c2c1` was inactive: 6.02%; that for `CCOc1ccccc1NC(=O)CSc1ncc(S(=O)(=O)c2ccc(C)c(C)c2)c(N)n1` was inactive: -35.1%; that for `COc1ccc(CCNC(=O)Cn2cc(S(=O)(=O)Cc3ccccc3Cl)c3ccccc32)cc1OC` was inactive: -18.1%.
For the compound `O=C(CSc1nnc(-c2ccccc2F)o1)Nc1ccccc1Cl`, the Potency is active: 2240 nM.
For `CCSc1nnc2c(n1)OC(c1ccc(C)s1)Nc1ccccc1-2` (configuration not stated), the “activity change, positive = activation” value is inactive: 6.84%.
As to `COc1cc(NC(=O)N2CCC3(CC2)Nc2ccccc2-n2cccc23)cc(OC)c1OC`, the “activity change, positive = activation” value is inactive: -33.8%.
Still for that read-out and setting: the value for `CCOc1ccc(NC(=O)Cn2nnc(C(=O)NCCc3ccccc3)c2N)cc1` was inactive: -16.2%; that for `COc1ccc(-c2noc(-c3ccc(NCC4CCCO4)c([N+](=O)[O-])c3)n2)cc1` (configuration not stated) was inactive: -2.81%; that for `CNC(=O)c1c(NC(=O)Cc2coc3ccc(C)cc23)sc2c1CCCC2` was inactive: -16.3%.
For `CCc1nn(CC(=O)Nc2c(C)cccc2C)c(=O)c2cc3sccc3n12`, the “activity change, positive = activation” value was inactive: -10.1%.
In the case of `O=C(CSc1nc2c([nH]c3ccccc32)c(=O)n1-c1ccccc1)Nc1ccc(Cl)c(Cl)c1`, the “activity change, positive = activation” value was inactive: -33.9%.
Still for that read-out and setting: next, `Cc1ccc(CCNC(=O)c2cn(C)c3ccc(S(=O)(=O)N4CCC(C)CC4)cc3c2=O)cc1`: inactive: -5.46% [at 11.5 µM, percent change from vehicle, -100% = no light].
Same read-out and setting: next, `Cc1cc(C)c(NC(=O)CCCn2c(C)c3cnn(-c4ccccc4)c(=O)c3c2C)c(C)c1`: inactive: -25.1%; `CC(C)CC(=O)Nc1nnc(SCc2cc(=O)n3ccccc3n2)s1`: inactive: -16.4%; `COc1cc(OC)cc(-c2nc3nc(C)c(CCC(=O)NCCC(C)C)c(C)n3n2)c1`: inactive: -0.0054%.
As for `CCOC(=O)c1c(S(=O)(=O)NCC(=O)Nc2ccc(F)cc2C)c(C)n(C)c1C`, the “activity change, positive = activation” value is inactive: -7.8%.
Turning to `CCN(CC)S(=O)(=O)c1ccc2[nH]cc(C(=O)NCCc3ccccc3)c(=O)c2c1`, the “activity change, positive = activation” value is inactive: -36.3%.
The same measure, in the same setting: next, `O=c1c(S(=O)(=O)c2cccc(Cl)c2)cn(Cc2ccccc2)c2cc(N3CCCCC3)c(F)cc12`: inactive: 0.65%; `COc1ccccc1NC(=O)CN1C(=O)CSc2ccc(S(=O)(=O)N3CCCC3)cc21`: inactive: -15.1%; `CCn1ccc2cc(S(=O)(=O)N3CCC(C(=O)NCCc4ccccc4)CC3)ccc21`: inactive: -15.8%.
As for `CC(=O)C1=C(c2ccc(Br)cc2)N(C(C)=O)n2c(nnc2C2CCCCC2)S1`, the “activity change, positive = activation” value was inactive: -2.97%.
Same read-out and setting: the value for `COc1cc(OC)c(NC(=O)c2c(C)oc3nc(C)nc(N4CCOCC4)c23)cc1Cl` was inactive: -0.358%; that for `COc1cccc(-n2cc(C(=O)OCc3ccc(Cl)cc3)c3ccccc3c2=O)c1` was inactive: -26.6%; that for `Cc1cccc(CNC(=O)c2ccc(C)c(-n3c(C)nc4cccnc43)c2)c1` was inactive: -9.89%.
For `CCOc1ccc(-n2c(=O)c3c(C)c(C)sc3n(CC(=O)N3CCC(C)CC3)c2=O)cc1`, the “activity change, positive = activation” value is inactive: 11.8%.
Turning to `O=C(NCc1ccccc1Cl)c1ccc(Cn2c(=O)c3cccn3c3cccnc32)cc1`, the “activity change, positive = activation” value was inactive: -24.7%.
Consider `CCCCOc1cccc(NC(=O)c2cccc(C(=O)Nc3cccc(OCCCC)c3)c2)c1`, for which the “activity change, positive = activation” value is inactive: 17.3%.
As to `CCOC(=O)c1c(C)oc2nc(C)nc(NCc3cccc(Cl)c3)c12`, the “activity change, positive = activation” value was inactive: -15.9%.
As to `O=C(c1cccc(Cl)c1)n1nc(-c2cccnc2)nc1NCc1ccccc1`, the “activity change, positive = activation” value is inactive: 10.5%.
On the same count and under the same terms, next, `CCOC(=O)C1=C(N)Oc2ccc(Br)cc2C1C(C#N)C(=O)OCC` (configuration not stated): inactive: 0.793%; `CCOC(=O)c1nc(Nc2ccc(C(=O)OC)cc2)c2ccccc2n1`: inactive: -18%.
Consider `CSCCC(NS(=O)(=O)c1ccc2c(c1)oc(=O)n2C)C(=O)N1CCN(c2ccc(C(C)=O)cc2)CC1` (configuration not stated), for which the “activity change, positive = activation” value is inactive: -0.406%.
Same read-out and setting: next, `COc1cccc(C(=O)NCC(=O)OCc2cc(=O)n3ccsc3n2)c1`: inactive: -9.88%; `CCc1ccccc1NC(=O)c1ccc(=O)n(Cc2ccc(F)cc2)c1`: inactive: -12.3%; `CCc1ccc(-n2c(=O)c3cccnc3n2CC(=O)Nc2cc(OC)ccc2OC)cc1`: inactive: -4.04%.
Regarding `COc1cc(OC)cc(C(=O)Nc2nnc3n2CCS3)c1`, the “activity change, positive = activation” value is inactive: -19%.
Consider `Cc1ccc(C(=O)Nc2nc(-c3nnn(-c4cccc(C(F)(F)F)c4)c3C)ns2)cc1`, for which the “activity change, positive = activation” value is inactive: -15.9%.
Still for that read-out and setting: the value for `O=C(O)CCc1nnc2cnc3ccccc3n12` was inactive: 3.01%.
Same read-out and setting: the value for `Cc1ccc2ncc(C(=O)NC(C)c3ccccc3)c(=O)n2c1` (configuration not stated) was inactive: -23.7%; that for `CC(=O)N1CCC2(CC1)OC(=O)C(C)=C2C(=O)NCc1cccc(Cl)c1` was inactive: -7.98%.
On the same count and under the same terms, the value for `Cc1ccc(N2C(=O)CS(=O)(=O)C23C(=O)N(C)c2ccccc23)cc1F` (configuration not stated) was inactive: -22.9%; that for `Cc1ccc(C)c(Nc2cc(C(=O)NCCCN(C)C3CCCCC3)c3ccccc3n2)c1` was inactive: -21.4%; that for `Cc1ccc(N2CCN(C(=O)c3c(C)oc4ncnc(N5CCOCC5)c34)CC2)c(C)c1` was inactive: -6.49%.
